This note sets out measurements from PubChem BioAssay (NCI).

The test deals with RXF 393 renal. Nature of the test: NCI-60 one-dose screen, 48 h (100 = growth as untreated, 0 = no growth, -100 = all killed).

Some compounds were tested as several samples or in several runs, with calls that do not always agree.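 Method: cells in 96-well plates; compound added at one concentration; 48 h incubation; percent growth measured; values under 10 scored active.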 Certain results were filed several times, with different values. They are shown here; other results are not. The source may hold further records. These are repeated runs of one drug, at its own concentration, as given; one value stands for one run. Additions like (4×) stand for listed records that agree.

Regarding `COc1cccc2c1C(=O)c1c(O)c3c(c(O)c1C2=O)C[C@@](O)(C(=O)CO)C[C@@H]3OC1CC(N)C(O)C(C)O1` (stereo not given in full), the growth result reads like this: (0.25 µM, runs of 2015) “inactive: 67.2, 58.1, 59.5, 52.3, 63.1, 62.4, 54.6, 55.1, 45.5 (2×), 60.5 (2×), 59.6, 60.6, 75.6, 74.5, 67.4 (2×), 54.3, 54.7, 57.4, 61.4 (2×), 64.2 (2×), 73.1, 65.6, 63.8, 64.4, 57.7, 57, 49, 55.8, 39.6, 50.8 (2×), 53.9, 39, 44.1, 40.7, 38.2, 47.9, 45.4, 54.2, 54.8, 64.8, 65.4, 66.8, 79.4, 57.2, 68.3, 40.6, 46.9, 69.2, 30.9, 37.8, 48.4, 20.8, 46.1, 27.1, 44, 51.8, 39.1, 53.4, 61.7, 65.2, 76.2, 81.5, 63.9, 55.9, 66.6, 68.5, 45.6, 53.2, 76.9, 82, 70.9, 67.3, 52.7, 64.9%”; (0.25 µM, runs of 2016) “inactive: 49.2, 49.7, 28.1, 24.9, 59.2, 49.5, 52.8, 51.5, 50.5, 53.6, 68.2, 77.4, 78.5, 66.2, 70.2, 62.1, 69.3, 71.5, 50.3, 56.7, 63.1, 58.8 (2×), 71.6, 64.8, 50.2, 47.8, 39.8, 42.3, 45, 27, 35.5, 43.4, 41.6, 56, 49.4, 68.6, 72.3, 57.9, 70.6, 65.2, 74.7, 80.6, 79.5, 74, 71.4, 68.8 (2×), 70.7 (2×), 60.9, 57.1, 63.3 (2×), 56.2, 64.2, 69.2, 62.6, 67.9, 75.1, 54.9, 67.4, 63.7 (2×), 65.4, 65.8, 71.7, 69.7, 73.9, 67.6, 81.6, 88.5, 69.1, 60.5, 67.5, 62.2, 67.2, 63.2, 61.4, 78.4, 78.7, 60.8, 64%”; (0.25 µM, runs of 2017) “inactive: 55.2, 65, 47.6, 47.5 (2×), 67.2, 37.7, 46.3, 45.7, 54.7 (2×), 49, 33.6, 67.1, 60.4, 39.8, 44.3, 36.9, 39, 39.9, 42.3, 37.6, 45.9, 50.4, 53.3, 72.2, 53, 62.8, 58.4 (2×), 49.2 (2×), 46.6, 46.7, 55, 51.4, 55.1, 54.6, 57 (2×), 54.3, 57.1 (2×), 58.9 (2×), 56, 61.3, 54, 61.9, 66.2, 70.9, 65.3, 60.6, 55.3, 50.3, 52.9, 59.4, 45.8, 47.4, 47.3, 56.8 (2×), 54.9, 59.9, 58.1, 52, 57.5, 56.1 (2×), 61.8, 54.5, 56.3, 46, 51.7, 61.4, 65.5, 59.8, 46.9, 53.2, 53.8, 55.4, 44.5%”; (0.25 µM, runs of 2018) “inactive: 49.6, 51.5, 37.7, 35.5, 40.2, 46.6, 50.2, 42.5, 50.8, 59, 61.1, 61.7, 67.9, 55.7, 61, 56.8, 45.7, 52.1, 38.9, 28.3, 32.7, 56.7, 55 (2×), 55.2, 57.4, 60.3, 49, 53.9, 56.3, 37.8, 43.3, 39.3, 28.7, 17.9, 42.1, 33.5, 36.4, 48.5, 54.3, 48.1, 62.6, 46.4, 58.1, 58.6, 54.7, 63.8, 58.8, 18.8, 24.2%”; (0.25 µM, runs of 2019) “inactive: 10.2, 18.2, 16.4, 46.7, 51.7, 52.7, 42.7, 48.1, 52.5, 47.7, 50.5, 34.9, 37.6 (2×), 35, 21.4, 20.7, 37.5, 26.7, 14.4, 37, 39.9, 44.5, 40.7, 52.4, 56.7, 60.9, 62.8, 60.3, 47.6, 43.3, 23.6, 31.7, 32.6, 34.4, 20.9, 22.4, 21.6, 15.2, 44.4, 51.2, 56, 57.5, 51.3, 55.9, 32.4, 32.5, 20.8% and active: 9.79%”; (0.25 µM, runs of 2020) “inactive: 42, 43.8, 67.7, 62, 60.6, 60.4, 58.2, 61.7 (2×), 38.3, 62.1, 29.5, 34.6, 30.9, 33.7, 28.5, 55, 33.6, 34.5, 53.8, 55.8, 62.2, 67, 56.3, 59.9, 61.9, 67.1%”. The growth entry is “inactive: 10.2, 15.9, 11.2, 29, 12.5, 40.8, 42.7, 34.9, 31.8, 27.6, 26.2, 28.5, 27.7, 22.4, 32.4, 45, 32.5, 43, 53.8, 37.5 (2×), 43.1, 44.2, 45.5, 51.4, 39.2, 34.2, 42.6, 40.3 (2×), 45.9, 42.8, 40.7, 41.7, 42.3, 46.8, 25.9, 48.5, 29.2, 33.6, 54.6, 27.2, 22.2, 43.5, 42.4% and active: -5.44, 9.18, 9.07, -8.14, 4.51, -5.43, 2.08, 9.06%” (0.25 µM, runs of 2021); “active: -18.8%, -16%, 7.32% and inactive: 56.8, 64.6, 69.2, 48.7, 76.2 (2×), 95.6, 115, 53.3, 29.3 (2×), 23.4, 22.8, 82.4, 39, 56.9, 67.7, 91.6, 38.2, 39.7, 25.8, 11.3%” (0.25 µM, runs of 2022); “active: -82.2, -78.1, -98.1, -85.4, -96.9, -86.9, -66.6, -98.8, -88.1, -84.2 (2×), -71.6, -91.9, -74.9, -69.2, -91.7, -92.8, -62.5, -59%” (25 µM, runs of 1991); “active: -89, -73.1, -87.3, -90.5 (2×), -71.5, -96.1, -86.1, -76.3 (2×), -83.2, -80.7, -84.8, -89.9 (2×), -82.4 (2×), -52.3, -96.8 (2×), -88.1, -78.3, -69.4, -72.8, -86.2, -85.2, -86.8 (2×), -92.2 (3×), -84.2, -80.5, -85.7 (2×), -76.6, -58.7, -87.8 (2×), -91.3, -77.7, -86.4, -76.2, -84.5, -93.3, -89.1, -88.8, -80.3, -89.4, -70.7, -85.1, -69.8, -77, -94.1, -99.4, -92.6, -88.5, -83.9, -69.9, -88, -91, -74.7, -90.4, -91.7 (2×), -86.3 (2×), -73.7, -85, -97.7, -92 (3×), -90, -94.5, -83.4, -83, -84.4, -75, -62.7, -90.1, -96.2, -94.7 (2×), -91.9, -78.7, -83.7, -67.1, -74.2, -85.5, -81.5, -87.5, -44.8, -89.5% and inactive: 11.8%” (25 µM, runs of 1992); “active: -40.5, -26.8, -82.6, -76.8, -93.8, -28.3, -75.8 (2×), -68.3, -94.3, -96.9, -90.1, -86, -92.9, -78.7, -63.5, -77.3, -57.6, -85.5, -81.1, -93.3, -64.3, -83.3, -77.4, -73.1, -78.8, -77.6, -68.1, -72.3, -76.9, -92, -100, -81.4, -92.2, -90.8, -81, -56.1, -66.4, -62, -42.8, -84.3, -73.6, -48.4, -84.9%” (25 µM, runs of 1993); “active: -93.1, -97.7, -85.4, -29.3, -81.4, -88.7, -74.6, -70.7, -97, -74.8, -57, -93.6, -60.1, -87.6, -79.4, -83.8, -77.9, -75, -91.8, -81.5, -38.1, -87.9, -42.6, -78.3, -69.7, -42.2%” (25 µM, runs of 1994). Also, the growth entry reads like this: (25 µM, runs of 1995) “active: -61.1, -83.6, -93.9 (2×), -54.1, -83.3, -56.8, -78.8, -64.7, -88.2, -55.6, -89.9, -32.6, -42.7, -79.1, -28.7, -91.7, -71.9 (2×), -88.9, -76.8, -57.3, -70.4, -60.2, -64.1, -25, -41.9, -75.7, -89.6, -78.6, -59.5, -65.2, -77, -66.6, -58.2%”; (25 µM, runs of 1996) “active: -46.4, -52, -79.1, -82.3, -77.9, -62.7 (2×), -61.7, -93.3, -73.5, -88.9, -69.6, -95.3, -80.9, -84.8, -89.6, -73.6, -86.7, -64.6, -65.7, -87.6, -86.2, -92.6, -85.9, -84.7, -71.5, -86.9, -80.8, -76.1, -81.6, -72.1, -81.8, -28.6, -78, -55.2, -71.2, -70.5, -70.9, -78.7, -93.1, -8.06, -62.1, -79.3, -72.9, -64.2, -82.7, -69.2, -82.9, -66.5, -83.3, -73.3, -79.7% and inactive: 123%, 56.2%”; (25 µM, runs of 1997) “active: -67.8 (2×), -68.2, -91, -55.6, -77.1, -52.1, -46, -33.2, -61.9, -50.5, -85.1, -74.7, -90.9, -90.6, -93.6, -70.9, -83.9, -78.3, -83.8, -78, -76.3, -75.4, -73.3, -43.1, -52.4, -55.8, -64.7, -63.4, -77.5, -80.2, -87.4, -62.8, -90, -74.3, -51.7, -75.7, -85.3, -52.6%”.
